Positions count from the first letter of the chain named.
T1: human IL-1R-I (RnD Systems cat. no. 269-1R/CF) (human, UniProt P14778 18-332, limits assumed)
T1 construct: bought protein; also called hIL-1R-I; hIL-1RI
T1 sequence (looked up): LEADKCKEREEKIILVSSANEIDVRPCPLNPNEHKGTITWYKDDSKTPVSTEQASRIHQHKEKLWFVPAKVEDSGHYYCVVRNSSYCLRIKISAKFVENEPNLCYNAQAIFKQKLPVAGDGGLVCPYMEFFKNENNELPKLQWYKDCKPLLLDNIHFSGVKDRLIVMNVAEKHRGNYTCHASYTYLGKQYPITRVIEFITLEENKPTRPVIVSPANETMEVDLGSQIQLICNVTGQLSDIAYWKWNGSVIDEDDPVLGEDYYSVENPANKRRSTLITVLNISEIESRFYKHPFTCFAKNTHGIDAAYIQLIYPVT

T2: IL-1R-I on TF-1 cells (UniProt P14778 18-569, limits assumed)
T2 sequence (looked up): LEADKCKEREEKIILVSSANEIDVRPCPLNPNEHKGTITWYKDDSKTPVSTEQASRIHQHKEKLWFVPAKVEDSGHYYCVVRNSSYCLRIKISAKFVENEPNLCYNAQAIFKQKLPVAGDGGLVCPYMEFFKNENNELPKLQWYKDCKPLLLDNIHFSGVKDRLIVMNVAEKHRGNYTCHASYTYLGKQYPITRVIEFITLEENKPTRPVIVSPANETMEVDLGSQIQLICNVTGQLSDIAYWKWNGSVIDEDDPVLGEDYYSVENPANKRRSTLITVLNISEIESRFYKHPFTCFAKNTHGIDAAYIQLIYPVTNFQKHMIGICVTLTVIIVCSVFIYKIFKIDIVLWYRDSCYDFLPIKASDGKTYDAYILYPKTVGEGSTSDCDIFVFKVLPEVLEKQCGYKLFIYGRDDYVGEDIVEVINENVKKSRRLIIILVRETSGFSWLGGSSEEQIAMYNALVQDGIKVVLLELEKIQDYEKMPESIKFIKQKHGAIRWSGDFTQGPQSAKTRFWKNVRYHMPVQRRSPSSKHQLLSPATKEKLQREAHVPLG

T3: Human IL-1R-I-Fc (Creative BioMart cat. no. IL1RI-771H) (human, UniProt P14778 18-332, limits assumed)
T3 construct: bought protein; also called hIL-1R-I-Fc; hIL-1RI-Fc
T3 sequence (looked up): T1 sequence (looked up)

B1: His6-Z16023 (designed binder)
chain: MGSSHHHHHHLQVDAKYAKEVEEAQMEIFALPNLTRKQYTAFIRKLLDDPSQSSELLSEAKKLNDSQAPKVD
B2: His6-Z15862 (designed binder)
chain: B1 chain with E23I
B3: His6-Z15876 (designed binder)
chain: B1 chain with V21I, E23A, A30G, L47F
B4: His6-Z15927 (designed binder)
chain: B1 chain with V21I, A30Y
B5: His6-Z15953 (designed binder)
chain: B1 chain with V21T, E23K
B6: His6-Z15961 (designed binder)
chain: B1 chain with E23T, L47F
B7: His6-Z16007 (designed binder)
chain: B1 chain with E23I, A30S, L47F
B8: His6-Z16043 (designed binder)
chain: B1 chain with V21T, A30R, K37R
B9: His6-Z16065 (designed binder)
chain: B1 chain with K37R
B10: His6-Z16072 (designed binder)
chain: B1 chain with E23I, A30E
B11: His6-Z16093 (designed binder)
chain: B1 chain with V21T, L47F
B12: His6-Z16097 (designed binder)
chain: B1 chain with V21T, E23R, A30S
B13: His6-Z16116 (designed binder)
chain: B1 chain with E23A, A30G
B14: His6-Z16117 (designed binder)
chain: B1 chain with V21I, E23K, M26F, L47F
B15: His6-Z16127 (designed binder)
chain: B1 chain with V21I, E23I, A30G
B16: His6-Z16143 (designed binder)
chain: B1 chain with V21I, E23A, A30R
B17: His6-Z16165 (designed binder)
chain: B1 chain with V21I, E23V, F29Y, A30S, L47F
B18: His6-Z16169 (designed binder)
chain: B1 chain with V21T, A30Y, K37R
B19: Z16023-ABD (designed binder)
chain: AQHDEALEVDAKYAKEVEEAQMEIFALPNLTRKQYTAFIRKLLDDPSQSSELLSEAKKLNDSQAPKVDYVLAEAKVLANRELDKYGVSDYYKNLINNAKTVEGVKALIDEILAALPYVPG
B20: Z15824-ABD (designed binder)
chain: B19 chain with V17I, L43F
B21: Z15840-ABD (designed binder)
chain: B19 chain with E19V
B22: Z15876-ABD (designed binder)
chain: B19 chain with V17I, E19A, A26G, L43F
B23: Z15897-ABD (designed binder)
chain: B19 chain with V17T, E19N
B24: Z15953-ABD (designed binder)
chain: B19 chain with V17T, E19K
B25: Z16011-ABD (designed binder)
chain: B19 chain with V17I, E19V, L43F
B26: Z16034-ABD (designed binder)
chain: B19 chain with A26E, L43F
B27: Z16041-ABD (designed binder)
chain: B19 chain with V17I, E19T, L43F
B28: Z16042-ABD (designed binder)
chain: B19 chain with E19D, A26G
B29: Z16043-ABD (designed binder)
chain: B19 chain with V17T, A26R, K33R
B30: Z16046-ABD (designed binder)
chain: B19 chain with V17I, E18Y, E19S, A26K, L43F
B31: Z16048-ABD (designed binder)
chain: B19 chain with V17I, F25Y, A26Y, L43F
B32: Z16049-ABD (designed binder)
chain: B19 chain with E19Q, A26S
B33: Z16050-ABD (designed binder)
chain: B19 chain with E19A, A26N, K33R
B34: Z16051-ABD (designed binder)
chain: B19 chain with E19S
B35: Z16053-ABD (designed binder)
chain: B19 chain with V17T, E19R
B36: Z16054-ABD (designed binder)
chain: B19 chain with V17A, E19V, Q21Y, M22F, F25Y
B37: Z16058-ABD (designed binder)
chain: B19 chain with A26K
B38: Z16065-ABD (designed binder)
chain: B19 chain with K33R

Legend:
[1] = target: T1, human IL-1R-I (RnD Systems cat. no. …); assay: Biacore SPR, hIL-1R-I immobilized, 1:1 model
Description: One flow cell surface on the chip was activated and deactivated for use as blank during analyte injections.

IL-1R-I on TF-1 cells = target: T2, IL-1R-I on TF-1 cells; assay: cell-based or functional assay
[2] = target: T3, Human IL-1R-I-Fc (Creative BioMart cat. …); assay: ELISA, hIL-1R-I-Fc titration on Z-ABD
[3] = target: T1, human IL-1R-I (RnD Systems cat. no. …); assay: Biacore kinetic screening, Z-ABD captured on anti-ABD, 100 nM hIL-1R-I

Binder | Kd [1] [nM] | koff [1] [s⁻¹] | kon [1] [M⁻¹ s⁻¹] | IC50 (nM), TF-1 cell assay (IL-1R-I on TF-1 cells) [nM] | EC50 [2] [nM] | Kd [3] [nM]
B1 | 0.29 | 0.0015 | 5.3e+06 | 3.8 | – | –
B2 | 0.67 | 0.0019 | 2.8e+06 | 6.6 | – | –
B3 | 0.62 | 0.0013 | 2.1e+06 | 2.4 | – | –
B4 | 0.51 | 0.0012 | 2.4e+06 | 2.5 | – | –
B5 | 0.24 | 0.0015 | 6e+06 | 3.7 | – | –
B6 | 0.46 | 0.002 | 4.3e+06 | 2.9 | – | –
B7 | 0.92 | 0.0021 | 2.3e+06 | 5.9 | – | –
B8 | 0.44 | 0.0011 | 2.5e+06 | 2.5 | – | –
B9 | 0.19 | 0.0013 | 6.9e+06 | 1.7 | – | –
B10 | 0.47 | 0.0022 | 4.6e+06 | 4.3 | – | –
B11 | 0.25 | 0.0014 | 5.6e+06 | 3.3 | – | –
B12 | 0.48 | 0.0015 | 3.1e+06 | 3.4 | – | –
B13 | 0.88 | 0.0023 | 2.6e+06 | 4.1 | – | –
B14 | 0.69 | 0.0027 | 4e+06 | 8.5 | – | –
B15 | 0.29 | 0.0019 | 6.7e+06 | 4.1 | – | –
B16 | 0.53 | 0.0016 | 3.1e+06 | 4.8 | – | –
B17 | 1.7 | 0.0036 | 2.1e+06 | 11.5 | – | –
B18 | 0.39 | 0.001 | 2.6e+06 | 0.76 | – | –
B19 | – | – | – | – | 0.21 | 9.2

Binder | Kd [1] [nM] | koff [1] [s⁻¹] | kon [1] [M⁻¹ s⁻¹] | IC50 (nM), TF-1 cell assay (IL-1R-I on TF-1 cells) [nM] | EC50 [2] [nM] | Kd [3] [nM]
B20 | – | – | – | – | 0.23 | 9.2
B21 | – | – | – | – | 0.25 | 11
B22 | – | – | – | – | 0.42 | 8.3
B23 | – | – | – | – | 0.25 | 12
B24 | – | – | – | – | 0.21 | 11
B25 | – | – | – | – | 0.22 | 11
B26 | – | – | – | – | 0.23 | 9.1
B27 | – | – | – | – | 0.24 | 10
B28 | – | – | – | – | 0.24 | 9.7
B29 | – | – | – | – | 0.23 | 8.3
B30 | – | – | – | – | 0.27 | 18
B31 | – | – | – | – | 0.25 | 11
B32 | – | – | – | – | 0.24 | 14
B33 | – | – | – | – | 0.23 | 13
B34 | – | – | – | – | 0.25 | 15
B35 | – | – | – | – | 0.25 | 11
B36 | – | – | – | – | 0.24 | 29
B37 | – | – | – | – | 0.23 | 14
B38 | – | – | – | – | – | 7.8

From patent US20250066451A1 (SWEDISH ORPHAN BIOVITRUM AB PUBL, published 2025)
